Measured values: PubChem BioAssay AID504832 (National Center for Advancing Translational Sciences (NCATS), 2011)
Hit rate of the full screen: of about 310,000 compounds, about 18,000 (5.8%) were called active. This list was built around the results that the source calls inconclusive (neither active nor inactive); the mix of calls is not that of the screen. The call rests on the fitted dose curve; in most records, active means well fitted inhibition curve with a large enough effect; inconclusive means small, poorly fitted or top-dose-only effect, or another doubt; inactive means no such curve, though single readings can be large or run the other way. Potencies of inconclusive entries are left out as doubtful fits.

Experiment: Primary qHTS for delayed death inhibitors of the malarial parasite plastid, 48 hour incubation
Conditions: P. falciparum luciferase growth in erythrocytes; series mostly up to 28.7 µM
Outline: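 Luminescence readout; reporter = integrated firefly luciferase in P. falciparum. RBC culture at 2% hematocrit, 0.1% parasitemia final, 37 C/5% CO2; decreased signal taken as growth inhibition.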
Potency means the concentration at half of the fitted maximal effect; tags describe the fitted curve by direction and shape.

Structure (SMILES)	Potency
CC(=O)Nc1ncc(N=Nc2cccc(C(F)(F)F)c2)s1	inactive
Cc1ccc(C)c(N=Nc2ccc(O)c3ncccc23)c1	active: 2.08 µM
CCN1CCN(c2ccc(S(=O)(=O)N3CCCCC3)cc2NC(=O)CC(NC(C)=O)c2ccccc2)CC1 (configuration not stated)	inactive
CCCN[C@@H](C)C(=O)Nc1c(C)csc1C(=O)OC	inactive
O=C(c1ccc(Cl)cc1)C1CCCN(Cc2cnn(-c3ccccc3)c2)C1 (configuration not stated)	inactive
Cc1ccc(-c2cc(C(=O)N3N=C(C(F)F)CC3(O)C(F)F)c3ccccc3n2)cc1C (configuration not stated)	inconclusive [inhibitor, single point]
COc1ccc(-n2nc3c(N4CCC(C(=O)NCCc5ccccc5C)CC4)nnc(C)c3c2C)cc1	inactive
COc1cc(C(=O)NC2CCCc3c2cnn3-c2ccccc2F)cc(OC)c1OC (configuration not stated)	inconclusive [inhibitor, single point]
Cc1ccc(-c2nc(Cl)nc3ccccc23)cc1	inconclusive [inhibitor, single point]
CSc1ccc(C(=O)C2CCCN(Cc3cc4ccccc4[nH]3)C2)cc1 (configuration not stated)	inconclusive [inhibitor, single point]
CCOC(=O)c1c(NC(=O)CN2C(=O)C(=O)N(C(C)C)C2=O)sc(C)c1CC	inconclusive [inhibitor, single point]
CC(=O)c1ccccc1C(=O)N1CCCC(N2CCN(Cc3ccc4c(c3)OCO4)CC2)C1 (configuration not stated)	inconclusive [inhibitor, full curve, poor fit]
CCN1C(=O)[C@@H]2[C@@H](c3ccc(-c4cccc(Cl)c4)cc3)N3CCC[C@@]3(C(=O)OC)[C@@H]2C1=O	active: 11.7 µM
O=C(O)c1ccccc1C(=O)N1CC=C(c2ccccc2)CC1	inconclusive [inhibitor, partial curve]
O=C(Cc1cccs1)Nc1ccccc1C(=O)O	inactive
COc1cccc(C(=O)C2CCCN(Cc3cccc(OCCO)c3)C2)c1 (configuration not stated)	inconclusive [inhibitor, single point]
COc1ccc(-c2csc(N(CCCN(C)C)C(=O)c3cc(OC)c(OC)c(OC)c3)n2)cc1	inconclusive [inhibitor, partial curve]
O=C(O[C@H]1[C@H](Cc2ccccc2)NS(=O)(=O)[C@H]2C[C@@H]3C=C[C@]12O3)c1ccc([N+](=O)[O-])cc1	inconclusive [inhibitor, single point]
O=C(c1ccc(F)cc1)N(c1ccccn1)C1CCCCC1	inactive
O=C1C2CCCN2C(c2ccco2)N1c1ccc(F)cc1 (configuration not stated)	inactive
O=C(O)c1ccccc1C(=O)OCCCc1ccncc1	inconclusive [inhibitor, partial curve, poor fit]
N#CC1=C2SCCN2C(=O)C(C#N)C12CCCCC2 (configuration not stated)	inactive
CSC(=NC#N)N1CCN(c2cccc(Cl)c2)CC1	inconclusive [inhibitor, full curve, poor fit]
O=C(NCC(=O)N1CCCCC1)c1sc2ccccc2c1Cl	inactive

Structure (SMILES)	Potency
c1ccc(COc2ccccc2CNC23CC4CC(CC(C4)C2)C3)cc1	inconclusive [inhibitor, single point]
CC(=O)Nc1cccc2c1Cc1ccccc1-2	inactive
CCOCCCN(C)C1CCN(C(=O)c2oc3ccccc3c2NC(=O)c2ccc([N+](=O)[O-])cc2)CC1	inconclusive [inhibitor, single point]
O=c1c2ccccc2nc(/C=C/c2ccc(O)cc2)n1-c1ccccc1O	active: 9.28 µM
O=C(Nc1ccccc1)C1=C(O)CC(c2ccco2)CC1=Nc1ccccc1 (configuration not stated)	inconclusive [inhibitor, single point]
O=C1CC(c2ccccc2)CC(O)=C1C=NCCN1CCN(Cc2ccccc2)CC1 (configuration not stated)	inconclusive [inhibitor, full curve, poor fit]
CCC(CO)Nc1ncnc2onc(-c3ccc(F)cc3)c12 (configuration not stated)	inactive
Cc1sc2ncnc(NCC(O)c3ccc([N+](=O)[O-])cc3)c2c1C (configuration not stated)	active: 9.28 µM
c1ccc2[nH]c(CN3CCCCCC3)nc2c1	inconclusive [inhibitor, single point]
CCn1cc(C(=O)NCCCOC(C)C)c(=O)c2cc(S(=O)(=O)N3CCC(C)CC3)ccc21	inconclusive [inhibitor, single point]
COc1cc(OC)cc(C(=O)Nc2ccccc2S(=O)(=O)N2CCCC2OC(C)=O)c1 (configuration not stated)	inactive
O=C(Cn1nc2n(c1=O)-c1ccccc1SC2)N/N=C/c1cccnc1	inactive
CCCN(CCC)Cc1c(C(=O)N/N=C/C(C)=C\c2ccco2)nnn1-c1nonc1N	inconclusive [inhibitor, single point]
CSc1ccc(Cc2ccc(Cl)cc2Cl)nn1	inactive
O=C(CN1CCN(c2cccc(C(F)(F)F)c2)CC1)N(C1CCCC1)C1CCS(=O)(=O)C1 (configuration not stated)	active: 14.7 µM
COc1cccc(NC(=O)C2C(c3ccccc3)C2(Cl)Cl)c1 (configuration not stated)	inconclusive [inhibitor, single point]
CCN1C(=O)CC(N2CCN(C(c3ccccc3)c3ccccc3)CC2)C1=O (configuration not stated)	inconclusive [inhibitor, single point]
COc1ccc(Cl)cc1NC(=O)NCc1ccc2c(c1)OCO2	inactive
Cc1cccnc1NC(=O)CSc1ccc2c(c1)OCCO2	inactive
CC(C)OC(=O)CSc1nnc(CNc2ccc(Cl)cc2)n1C	inconclusive [inhibitor, single point]
OCCN=C1CCCc2c1[nH]c1ccc(Cl)cc21	inactive
Cc1ccccc1OCCC(=O)Nc1ccc(N2CCOCC2)cc1N1CCOCC1	inconclusive [inhibitor, single point]
CC1(C)Cc2ccccc2-c2nc(CN3CCOCC3)[nH]c(=O)c21	inconclusive [inhibitor, partial curve, poor fit]
COCC(=O)N1CCC(Oc2ccc(C(=O)NC(C)c3nccs3)cc2)CC1 (configuration not stated)	inactive

Structure (SMILES)	Potency
CCC(=O)N1N=C(c2c(O)n(C)c(=O)n(C)c2=O)CC1c1ccccc1 (configuration not stated)	inconclusive [inhibitor, single point]
COC(=O)c1ccc(CSc2nc3ccccc3c(=O)n2Cc2ccco2)o1	inconclusive [inhibitor, single point]
CCOC(=O)c1c(-c2ccc(F)cc2)cn2ccccc12	inconclusive [inhibitor, partial curve]
Cc1ccc(CNC(=O)COc2ccc(S(=O)(=O)N3CCOCC3)cc2)cc1	inactive
C=CCc1ccc(OCCOc2cccc3cccnc23)c(OC)c1	inconclusive [inhibitor, single point]
CC(=O)O[C@H]1CC[C@]2(C)[C@H]3CC=C4[C@@H]5[C@@H](C)[C@H](C)CC[C@]5(C(=O)O)CC[C@@]4(C)[C@]3(C)CC[C@H]2C1(C)C	inconclusive [inhibitor, single point]
Cc1cc(NC(=O)CSCC(=O)Nc2cc(Cl)ccc2N2CCN(C)CC2)no1	inconclusive [inhibitor, partial curve, poor fit]
CCn1cc(CN2CCCC(CNC(=O)COc3ccccc3OC)C2)c(C)n1 (configuration not stated)	inconclusive [inhibitor, single point]
Cc1cccc(NC(=O)CSc2nnc(C)c(=O)n2N)c1	inactive
NC(N)=N/N=C/c1cc([N+](=O)[O-])ccc1O	inconclusive [inhibitor, partial curve, poor fit]
CC1CCN(CCCNC(=O)CN2C(=O)CSc3ccc(S(=O)(=O)N4CCCCC4)cc32)CC1	inconclusive [inhibitor, partial curve, poor fit]
CC(=O)NCCC(=O)N1CCCC(CNC(=O)c2ccc(-c3ccccc3)cc2)C1 (configuration not stated)	inactive
CC1=NN(c2nc(-c3ccc(C)cc3)cs2)C(=O)C1N=Nc1ccc(C(N)=O)cc1 (configuration not stated)	inactive
CCN(CC)c1ccc2c(C)c(CN3CCOCC3)c(=O)oc2c1	inconclusive [inhibitor, single point]
C=CCc1cc(Cl)ccc1OCCCNCCO	active: 9.28 µM
O=C(NC1=NCCS1)c1cccc(S(=O)(=O)N2CCc3ccccc32)c1	inconclusive [inhibitor, partial curve, poor fit]
COc1ccccc1CNC(=O)c1oc2ccc(S(=O)(=O)N3CCOCC3)cc2c1C	inconclusive [inhibitor, partial curve]
Cc1cnc(C(=O)OCc2ccc(COC(=O)c3cnc(C)cn3)cc2)cn1	inconclusive [inhibitor, single point]
Cc1ccc2nc(SCn3nnc4ccccc4c3=O)[nH]c2c1	inactive
C[n+]1ccccc1/C=C/c1ccccc1Cl	active: 1.47 µM
Cc1cc(C(C)(C)C)cc(C)c1S(=O)(=O)N1CCN(C(=O)c2cc([N+](=O)[O-])c[nH]c2=O)CC1	inconclusive [inhibitor, partial curve]
O=C1Nc2cc(C(=O)N3CCc4ccccc4C3)ccc2S/C1=C\c1ccccc1	inactive
O=C(C(Cl)c1ccccc1)N1CCCC1 (configuration not stated)	inconclusive [inhibitor, full curve, poor fit]
Cc1[nH]n(C(N)=S)c(=O)c1N=Nc1cccc([N+](=O)[O-])c1C	inconclusive [inhibitor, full curve]
